From the antibiotic and cytotoxicity screens of Wong et al. (2023)
Some of the results follow.

Tests used:
HSkMC = human skeletal muscle cells; assay: cytotoxicity call (relative viability < 0.9); conditions: 10 µM
HepG2 = assay: cytotoxicity call (relative viability < 0.9); conditions: 10 µM
S. aureus RN4220 = assay: growth inhibition call (relative growth <= 0.2); conditions: 50 µM

O=C(C[C@@H]1C=C[C@H](NC(=O)c2ccc3c(c2)OCO3)[C@@H](CO)O1)NCc1ccc(Oc2ccccc2)cc1
inactive: cytotoxicity call (HSkMC) | cytotoxicity call (HepG2) | growth inhibition call (S. aureus RN4220)

COc1cccc(CNC(=O)c2cc3c(c(-c4cccc(-c5ccncc5)c4)n2)[C@@H](CCO)N([S@](=O)C(C)(C)C)C3)c1
inactive: cytotoxicity call (HSkMC) | cytotoxicity call (HepG2) | growth inhibition call (S. aureus RN4220)

Cc1ccc(S(=O)(=O)N(C)C[C@@H]2Oc3ncc(C#CC4(O)CCCC4)cc3C(=O)N([C@@H](C)CO)C[C@@H]2C)cc1
inactive: cytotoxicity call (HSkMC) | cytotoxicity call (HepG2) | growth inhibition call (S. aureus RN4220)

C[C@H]1CN([C@@H](C)CO)C(=O)c2ccccc2-c2ccccc2CO[C@H]1CN(C)C(=O)Nc1ccc(F)cc1
inactive: cytotoxicity call (HSkMC) | cytotoxicity call (HepG2) | growth inhibition call (S. aureus RN4220)

CC(C)NC(=O)Nc1cccc2c1O[C@H](CN(C)Cc1ccc(C(=O)O)cc1)[C@@H](C)CN([C@H](C)CO)C2=O
inactive: cytotoxicity call (HSkMC) | cytotoxicity call (HepG2) | growth inhibition call (S. aureus RN4220)

C[C@H](CO)N1C[C@H](C)[C@H](CN(C)S(C)(=O)=O)Oc2ccc(NS(C)(=O)=O)cc2CC1=O
inactive: cytotoxicity call (HSkMC) | cytotoxicity call (HepG2) | growth inhibition call (S. aureus RN4220)

Cc1cc(N)n(-c2nc(=O)c(C)c(C)[nH]2)n1
inactive: cytotoxicity call (HSkMC) | cytotoxicity call (HepG2) | growth inhibition call (S. aureus RN4220)

C[C@H](CO)N1C[C@H](C)[C@@H](CN(C)C(=O)Nc2ccc(C(F)(F)F)cc2)Oc2ccc(NC(=O)C3CCCCC3)cc2C1=O
inactive: cytotoxicity call (HSkMC) | cytotoxicity call (HepG2) | growth inhibition call (S. aureus RN4220)

CCCCCCCCC(=O)O
inactive: cytotoxicity call (HSkMC) | cytotoxicity call (HepG2) | growth inhibition call (S. aureus RN4220)

C[C@H]1CC[C@@H]2N(C1)C[C@@H]1[C@H]([C@@H](O)[C@H](O)[C@]3(O)[C@H]1C[C@@]14O[C@]5(O)[C@@H](C[C@@H](O)[C@@H]31)[C@]4(C)CC[C@@H]5O)[C@]2(C)O
inactive: cytotoxicity call (HSkMC) | cytotoxicity call (HepG2) | growth inhibition call (S. aureus RN4220)

C[C@@H]1CCCCO[C@@H](CN(C)CC2CC2)[C@@H](C)CN([C@H](C)CO)C(=O)c2cc(NS(=O)(=O)c3ccc(Cl)cc3)ccc2O1
inactive: cytotoxicity call (HSkMC) | cytotoxicity call (HepG2) | growth inhibition call (S. aureus RN4220)

CC(=O)OCC(=O)O[C@@H]1[C@H]2[C@@H](OC(=O)c3ccccc3)[C@@H](C)C[C@]2(O)[C@H](OC(C)=O)[C@@]2(C)[C@H](OC(C)=O)[C@]1(OC(C)=O)C[C@H]1C(=O)C(C)(C)C[C@@H]12
inactive: cytotoxicity call (HSkMC) | cytotoxicity call (HepG2) | growth inhibition call (S. aureus RN4220)

CC(C)NC(=O)N[C@@H]1C=C[C@@H](CC(=O)O)O[C@H]1CO
inactive: cytotoxicity call (HSkMC) | cytotoxicity call (HepG2) | growth inhibition call (S. aureus RN4220)

CN(C)S(=O)(=O)Nc1cccc(N)c1
inactive: cytotoxicity call (HSkMC) | cytotoxicity call (HepG2) | growth inhibition call (S. aureus RN4220)

Cc1noc(C)c1S(=O)(=O)N(C)C[C@H]1Oc2ccc(NS(C)(=O)=O)cc2C(=O)N([C@@H](C)CO)C[C@H]1C
inactive: cytotoxicity call (HSkMC) | cytotoxicity call (HepG2) | growth inhibition call (S. aureus RN4220)

C[C@@H]1CCCCO[C@H](CN(C)S(C)(=O)=O)[C@@H](C)CN([C@H](C)CO)C(=O)c2cc(N(C)C)ccc2O1
inactive: cytotoxicity call (HSkMC) | cytotoxicity call (HepG2) | growth inhibition call (S. aureus RN4220)

Cn1cnc(CCNC(=O)C[C@H]2CC[C@H]3[C@@H](COC[C@H](O)CN3C(=O)Nc3ccc(C(F)(F)F)cc3)O2)c1
inactive: cytotoxicity call (HSkMC) | cytotoxicity call (HepG2) | growth inhibition call (S. aureus RN4220)

C[C@H](O)C#Cc1ccc2c(c1)O[C@@H](CN(C)C)[C@H](C)CN([C@@H](C)CO)S2(=O)=O
inactive: cytotoxicity call (HSkMC) | cytotoxicity call (HepG2) | growth inhibition call (S. aureus RN4220)

C[C@H]1CCCCO[C@@H](CN(C)C(=O)c2ccccc2)[C@@H](C)CN([C@@H](C)CO)C(=O)c2cc(NC(=O)Nc3ccc(C(F)(F)F)cc3)ccc2O1
inactive: cytotoxicity call (HSkMC) | cytotoxicity call (HepG2) | growth inhibition call (S. aureus RN4220)

Cc1noc(C)c1NC(=O)N(C)C[C@@H]1OCCCC[C@@H](C)Oc2ccc(NS(=O)(=O)c3cccs3)cc2C(=O)N([C@H](C)CO)C[C@H]1C
inactive: cytotoxicity call (HSkMC) | cytotoxicity call (HepG2) | growth inhibition call (S. aureus RN4220)

Cc1noc(C)c1NC(=O)Nc1ccc2c(c1)CC(=O)N([C@H](C)CO)C[C@H](C)[C@@H](CN(C)S(=O)(=O)c1c(C)noc1C)O2
inactive: cytotoxicity call (HSkMC) | cytotoxicity call (HepG2) | growth inhibition call (S. aureus RN4220)

CC(C)N1C[C@H](C)[C@@H](CN(C)Cc2ccc(Cl)c(Cl)c2)Oc2c(cccc2-c2cn(-c3ccncc3)nn2)C1=O
inactive: cytotoxicity call (HSkMC) | cytotoxicity call (HepG2) | growth inhibition call (S. aureus RN4220)

C[C@@H]1CN([C@H](C)CO)C(=O)c2cc(NS(C)(=O)=O)ccc2O[C@@H](C)CCCCO[C@@H]1CN(C)C(=O)c1ccncc1
inactive: cytotoxicity call (HSkMC) | cytotoxicity call (HepG2) | growth inhibition call (S. aureus RN4220)

C[C@H]1CN([C@@H](C)CO)C(=O)c2cccc(NS(C)(=O)=O)c2O[C@@H]1CN(C)Cc1ccc(C(=O)Nc2ccccc2N)cc1
inactive: cytotoxicity call (HSkMC) | cytotoxicity call (HepG2) | growth inhibition call (S. aureus RN4220)

C[C@H](CO)N1C[C@H](C)[C@H](CN(C)C(=O)NC2CCCC2)Oc2cc(-c3cccnc3)ccc2S1(=O)=O
inactive: cytotoxicity call (HSkMC) | cytotoxicity call (HepG2) | growth inhibition call (S. aureus RN4220)
